Data from PubChem BioAssay AID360 (National Center for Advancing Translational Sciences (NCATS), 2006).
The campaign covered roughly 48,000 compounds. About 550 (1.1%) were called active. Roughly 4% stayed inconclusive and do not appear here. No stated cut-off is given here; in the data, active means potency below about 15 µM; inconclusive means mostly about 16 µM to 33 µM; inactive means weaker than that. This is one part of the list.

molecular target: Lysosomal acid glucosylceramidase (Homo sapiens) (UniProt P04062); test: Glucocerebrosidase; settings: purified enzyme, resorufin glucoside fluorescence (screen aimed at inhibitors), 20 min;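 further: the screen sought inhibitors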
Procedure, shortened: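 Normal human glucocerebrosidase (0.2 nM final) was assayed with resorufin β-D-glucopyranoside (30 uM final) in 50mM citric acid/KH2PO4, 10mM sodium taurocholate, 0.01% tween-20, pH 5.9. Compounds were titrated; fluorescence (Ex 548, Em 600) read after 20 min at RT.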
Potency means the concentration at half of the fitted maximal effect.

Chain of UniProt P04062 (P04062 whole entry, looked up): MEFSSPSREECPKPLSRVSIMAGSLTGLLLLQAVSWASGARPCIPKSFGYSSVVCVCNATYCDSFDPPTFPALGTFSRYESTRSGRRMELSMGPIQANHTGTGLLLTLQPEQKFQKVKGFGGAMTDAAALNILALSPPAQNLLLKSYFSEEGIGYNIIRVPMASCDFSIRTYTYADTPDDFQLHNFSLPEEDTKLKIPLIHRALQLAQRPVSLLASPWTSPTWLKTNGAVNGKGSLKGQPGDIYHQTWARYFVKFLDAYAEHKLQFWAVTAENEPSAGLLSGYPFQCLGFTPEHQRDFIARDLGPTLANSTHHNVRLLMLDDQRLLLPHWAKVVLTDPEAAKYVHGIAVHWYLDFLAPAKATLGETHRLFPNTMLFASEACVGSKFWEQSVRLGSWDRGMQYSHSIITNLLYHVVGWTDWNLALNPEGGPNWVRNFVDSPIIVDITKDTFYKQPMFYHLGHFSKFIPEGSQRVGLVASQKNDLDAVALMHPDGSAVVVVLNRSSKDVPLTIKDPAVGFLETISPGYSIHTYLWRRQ

Potency, inactive:
CCCc1nc2oc3cc(OC)ccc3c(=O)c2c(=O)n1Cc1ccco1 > 76.9 µM
CCC(CC)C(=O)Nc1c2c(nn1-c1ccc(OC)cc1)CS(=O)C2 (stereo not given) > 76.9 µM
CN(C)CCCNCCCNC(=O)c1ccco1 > 76.9 µM
Cc1cc(=O)oc2cc(OCC(=O)OCC(=O)NCc3ccc4c(c3)OCO4)ccc12 > 76.9 µM
CCOC(=O)c1ccc(NC(=O)CSc2nnc(-c3ccncc3)n2C)cc1 > 76.9 µM
Cc1cc(C)n(C(=O)CCCC(=O)n2nc(C)cc2C)n1 > 76.9 µM
O=C(COC(=O)c1ccco1)NC1CCCCC1 > 76.9 µM
CCSc1nnc([C@H](C)NC(=O)OC(C)(C)C)o1 > 76.9 µM
O=C(Nc1nc2n(n1)C(c1ccc(Cl)cc1)CC(c1ccc(Cl)cc1)N2)c1ccco1 (stereo not given) > 76.9 µM
CC(=O)Nc1ccc(S(=O)(=O)NC(C(=O)O)C2=CCC=CC2)cc1 (stereo not given) > 76.9 µM
CCOc1ccc(OCC)c(NC(=O)CN2CCC(NC(=O)c3cccc(F)c3)CC2)c1 > 76.9 µM
O=C(O)CNC(=O)C1COc2ccccc2O1 (stereo not given) > 76.9 µM
O=C(NCCc1ccccn1)C1CC(=O)N(Cc2ccccc2Cl)C1 (stereo not given) > 76.9 µM
Cc1ccc(C(C(=O)NCc2ccco2)N(Cc2ccco2)C(=O)CNC(=O)c2ccco2)cc1 (stereo not given) > 76.9 µM
CCN1CCCC1CN(Cc1cc2cc(OC)ccc2[nH]c1=O)C(=O)NCc1ccccc1 (stereo not given) > 76.9 µM
COc1ccc(-c2cc(NCCc3ccncc3)n3ncnc3n2)cc1 > 76.9 µM
COc1cccc(OCC(=O)Nc2ccc(OC)c(OC)c2)c1 > 76.9 µM
O=C1CC(c2ccc(S(=O)(=O)N3CCN(c4ccccc4)CC3)cc2)CN1 (stereo not given) > 76.9 µM
CC(NC(=O)CC12CC3CC(CC(C3)C1)C2)C(=O)O (stereo not given) > 76.9 µM
CCCCCC(=O)N1CCN(CCN=CC2=C(O)CC(c3ccc(OC)cc3)CC2=O)CC1 (stereo not given) > 76.9 µM
c1ccc2c(c1)[nH]c1c(NCC3CCCO3)ncnc12 (stereo not given) > 76.9 µM
O=C(CN(c1ccc2c(c1)OCCO2)S(=O)(=O)c1ccccc1)NCC1CCCO1 (stereo not given) > 76.9 µM
Cc1ccc(N2CCN(C(=O)CNS(=O)(=O)c3ccc(Br)s3)CC2C)cc1 (stereo not given) > 76.9 µM
c1ccc(Cn2c(CNc3nc4ccccc4n3CCN3CCOCC3)nc3ccccc32)cc1 > 76.9 µM
O=C(Nc1ccc2snnc2c1)N1CCOCC1 > 76.9 µM
CCOC(=O)c1c(C)[nH]c(C(=O)OCC(=O)Nc2cc(C)ccc2OC)c1C > 76.9 µM
O=c1[nH]c2ccccc2nc1Cc1ccccc1 > 76.9 µM
CCOc1ccc(CCNS(=O)(=O)c2c(C)n[nH]c2C)cc1OCC > 76.9 µM
CCOc1ccc(NC(=O)N2CCC(NC(=O)c3ccco3)CC2)cc1 > 76.9 µM
CCCSc1ncnc2c1oc1ccccc12 > 76.9 µM
Cc1ccc(NC(=O)CSc2n[nH]c(-c3ccncc3)n2)cc1C
Cn1c(SC/C=C/c2ccccc2)nnc1-c1ccco1 > 76.9 µM
COCCCn1c(SCC(=O)N2CCc3ccccc32)nnc1-c1ccoc1C > 76.9 µM
COc1ccc2c3c(cccc13)OCC2=O > 76.9 µM
CC1(C)CC(NC(=O)C(F)(F)F)CC(C)(C)N1OC(=O)c1ccco1 > 76.9 µM
COc1ccc(NC(=O)CNS(=O)(=O)c2cccc3nonc23)c(OC)c1 > 76.9 µM
Cc1ccc(-c2nnn(CC(=O)NCc3ccccc3)n2)c(-n2cnnn2)c1 > 76.9 µM
CS(=O)(=O)c1ccc(-c2nn[nH]n2)cc1 > 76.9 µM
COC(=O)c1sc2ccccc2c1C(=O)OC > 76.9 µM
CCSc1nc(C)nc2c1oc1ccccc12 > 76.9 µM
CC(=O)Oc1ccc2oc3c(c2c1)C(=O)CCC3 > 76.9 µM
CC(=O)Nc1ccc(S(=O)(=O)Nc2nc3ccccc3nc2N2CCCC2)cc1 > 76.9 µM
Cc1cc(NC(=O)CCC(=O)N(c2ccc(F)cc2)C2(C(=O)NC3CCCCC3)CCCC2)no1 > 76.9 µM
COc1ccc(NC(=O)c2cc(S(=O)(=O)N3CCCCC3)ccc2N2CCCCC2)cn1 > 76.9 µM
COc1cccc(-c2nnn(CC(=O)Nc3ccc(C)cc3C)n2)c1OC > 76.9 µM
CSc1nc(C)cc(NC(N)=O)n1 > 76.9 µM
Cc1cc(C)c2[nH]c(=O)c(C(c3nnnn3Cc3ccc4c(c3)OCO4)N3CCC(C)CC3)cc2c1 (stereo not given) > 76.9 µM
CCC(c1nnnn1CCc1ccccc1)N(Cc1ccco1)Cc1cc2cccc(C)c2[nH]c1=O (stereo not given) > 76.9 µM
O=C(O)CCc1ccc(-c2ccccc2)n1CC1CCCO1 (stereo not given) > 76.9 µM
CCn1cc(C(=O)N2CCN(c3ccccn3)CC2)c2cc(OC)c(OC)cc2c1=O > 76.9 µM
O=C1c2ccncc2C(=O)N1CO > 76.9 µM
COc1cccc(C(=O)N2CCN(Cc3cccc(F)c3)CC2)c1 > 76.9 µM
Cc1noc(C)c1COC(=O)CCC(=O)c1ccc(F)cc1 > 76.9 µM
COc1ccccc1NC(=O)CSc1nnc(Cn2cnc3ccccc32)n1C > 76.9 µM
CCOC1(NC(=O)c2ccccc2)C(C)=CC(=O)C=C1C > 76.9 µM
CC(C)NS(=O)(=O)c1ccc(OCC(=O)Nc2ccccc2F)cc1 > 76.9 µM
O=C(CCNS(=O)(=O)c1cccs1)N1CCCCCC1 > 76.9 µM
COC(=O)CSc1nnc(CNC(=O)c2ccc(OC)cc2OC)n1C > 76.9 µM
CC(=O)N1CCCc2cc(S(=O)(=O)NC(C(=O)NC(C)c3ccccc3)C(C)C)ccc21 (stereo not given) > 76.9 µM
COCc1cc(=O)n2[nH]c(C)nc2n1 > 76.9 µM
O=C(CSc1ncn(-c2ccccc2)n1)N1CCc2ccccc21 > 76.9 µM
COc1cccc(/C(O)=C2/C(=O)C(=O)N(CCN3CCOCC3)C2c2cccs2)c1 (stereo not given) > 76.9 µM
CC(C(=O)NC1=NCCS1)N1C(=O)c2ccccc2C1=O (stereo not given) > 76.9 µM
CCCc1n[nH]c2c1/C(=N/O)CC(c1ccccc1)C2 (stereo not given) > 76.9 µM
CCCn1nc(C(=O)NCCc2ccc(S(N)(=O)=O)cc2)c2ccccc2c1=O > 76.9 µM
CCCCC(CC)C(=O)Nc1ccc(Cl)cn1 (stereo not given) > 76.9 µM
CCOc1ccccc1NC(=O)c1cccc(NC(=O)c2ccco2)c1 > 76.9 µM
O=C(Nc1ccc(NC(=O)c2ccco2)nc1)c1ccccn1 > 76.9 µM
CCOc1ccc(NC(=O)CN2CCN(CC(=O)Nc3ccc4c(c3)OCO4)CC2)cc1 > 76.9 µM
Cc1cn(CC2COC(C)(C)O2)c(=O)[nH]c1=O (stereo not given) > 76.9 µM
N#Cc1nc(-c2ccccc2Cl)oc1N1CCOCC1 > 76.9 µM
COCCCN1C(=O)c2[nH]nc(-c3cc(C)cc(C)c3O)c2C1c1ccc(O)c(OC)c1 (stereo not given) > 76.9 µM
CCOC(=O)c1ccc(-c2c(C(=O)OCC)oc3cc(O)c(CC)cc3c2=O)o1 > 76.9 µM
O=C(Nc1ccc(F)c(F)c1)c1ccc(F)c(S(=O)(=O)N2CCOCC2)c1 > 76.9 µM
COc1ccc(C(=O)Cn2c(N3CCOCC3)nc3ccccc32)cc1OC > 76.9 µM
COc1ccc(C(c2nnnn2CCc2ccccc2)N2CCN(C)CC2)cc1OC (stereo not given) > 76.9 µM
O=C(O)CSCC(=O)Nc1cc(C(F)(F)F)ccc1Cl > 76.9 µM
COCCNC(=O)CSc1nc2ccccc2c(=O)n1-c1cccc(OC)c1 > 76.9 µM
C=CCn1c(=O)c(C(=O)NCCNCC)c(O)c2ccccc21 > 76.9 µM
Cc1ccc(NC(=O)c2cccc(OCc3c(C)noc3C)c2)c(C)c1 > 76.9 µM
Cn1c(=O)c2cc(S(=O)(=O)NCCC(=O)NCCc3ccc(Cl)cc3)ccc2n(C)c1=O > 76.9 µM
COc1ccc(CCCc2nnc(SCC(=O)Nc3nc(C)cs3)n2C)cc1 > 76.9 µM
O=C1OC2(CCCCC2)OC(=O)C1=CNc1ccc2c(c1)OCO2 > 76.9 µM
Cc1ccccc1N1CCN(Cc2c(C#N)c3ccccc3n2C)CC1 > 76.9 µM
COc1cccc2[nH]c3c(N4CCC(C)CC4)ncnc3c12 > 76.9 µM
COc1ccc(-c2csc(NC(=O)Cn3nc(C)cc3C)n2)cc1 > 76.9 µM
CCn1c(SCC(=O)Nc2cc(F)ccc2C)nnc1-c1ccccc1O > 76.9 µM
CCOC(=O)c1nn(-c2ccc3c(c2)CCN3C(C)=O)cc1O > 76.9 µM
O=C(c1ccc(COc2c(F)c(F)c(F)c(F)c2F)o1)N1CCOCC1 > 76.9 µM
CC(Sc1nc(N(C)C)nc(N2CCOCC2)n1)C(=O)Nc1ccccc1 (stereo not given) > 76.9 µM
